Hit rate of the full screen: of about 330,000 compounds, about 4,200 (1.3%) were called active. The inconclusive results got no clear call from the source; some entries with a clear call stand among them for comparison. Calls follow the shape of the dose curve; as a rule, active = well fitted activation curve with a large enough effect; inconclusive = small, poorly fitted or top-dose-only effect; inactive = no such curve, though single readings can be large or run the other way. A potency beside an inconclusive call is a rough fit, not a confirmed value.
Test: qHTS screen for small molecules that induce genotoxicity in human embryonic kidney (HEK293T) cells expressing luciferase-tagged ELG1; also: nearly all actives have a fitted effect of over 60% in size; as to activity change, positive = activation: % of control where 0% means no effect
Details: HEK293T ELG1-luciferase reporter, luminescence, 16 h; series mostly up to 46 µM; activity change, positive = activation: at the top concentration
Procedure, shortened: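 Reporter readout depends on ELG1 protein level, which increases with genetic stress. After 16 hr compound exposure at 37 °C, luciferase activity was quantified using ONE-Glo.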
Potency is read from the fitted curve at half-maximal effect; tags tell the direction and shape of the fitted curve.

SMILES | Potency | activity change, positive = activation
O=C1N/C(=C\c2ccc(O)cc2)C(=O)c2ccccc21 | inconclusive: 32.6 µM [activator, partial curve, poor fit] | 
CC(=O)N1CCN(CC(=O)Nc2c(Cl)cc(Cl)cc2Cl)CC1 |  | inactive: -3.74%
O=C(Nc1ccc(N2CCCCC2)cc1)c1ccc(F)cc1 | active: 1.64 µM | 
Cc1ccnc(Nc2nc(-c3ccc(O)c(O)c3)cs2)c1 | active: 5.8 µM | 
Cc1csc(SCC(=O)Nc2sccc2C(N)=O)n1 | inconclusive: 13 µM [activator, partial curve] | 
CC(C)CSC1=NSC2=NC(=O)/C(=C\c3coc4ccccc4c3=O)C(=N)N12 |  | inactive: -0.0974%
COC(=O)c1ccc(Oc2c(F)c(F)nc(N3CCOCC3)c2F)cc1 |  | inactive: -15%
Cc1ccc(CNC(=O)CNC(=O)c2ccc(Br)o2)cc1 |  | inactive: -1.43%
COc1ccc(S(=O)(=O)N(C)CC(=O)NCCCN2CCOCC2)cc1Cl | inconclusive: 5.8 µM [activator, partial curve, poor fit] | 
O=C1c2ccccc2C(=O)N1CCN1CCc2ccccc21 | inconclusive: 10.3 µM [activator, partial curve, poor fit] | 
Fc1cc(Br)ccc1Nc1nc2ccccc2n2nnnc12 | inconclusive: 32.6 µM [activator, partial curve, poor fit] | 
Cc1ccc(-c2cc3c(N=O)c4ccccc4c-3n[nH]2)cc1 | inconclusive: 0.0651 µM [activator, partial curve, poor fit] | 
Cn1c(=NC(=O)c2cnccn2)sc2ccccc21 | active: 8.2 µM | 
COC(=O)c1cc(-c2ccc(Cl)cc2Cl)n[nH]1 | inconclusive: 16.4 µM [activator, partial curve, poor fit] | 
CN1CCN(c2ccc(NC(=O)COc3ccccc3)cc2Cl)CC1 | inconclusive: 8.2 µM [activator, partial curve, poor fit] | 
O=C(NCCc1ccccn1)c1ccc2nc(Cc3ccccc3F)oc2c1 | active: 4.61 µM | 
O=c1c2c(nc3cc(-c4ccccc4)[nH]n13)CCC2 | inconclusive: 2.59 µM [activator, full curve] | 
Cc1nn(C(=O)c2ccoc2C)c(N)c1-c1ccccc1 | active: 13 µM | 
NS(=O)(=O)c1ccc(N/N=C/c2ccccc2Br)cc1 |  | inactive: 13.3%
Cc1ccc(/C=C2/Sc3ccccc3N(CC(=O)NCC3CCCO3)C2=O)cc1 (configuration not stated) |  | inactive: -8.63%
Fc1ccccc1NC(=S)N1CCC(c2ccccc2)C1 (configuration not stated) | inconclusive: 18.3 µM [activator, partial curve] | 
COc1ccc2oc(C(=O)N(C)Cc3ccc4c(c3)OCCO4)c(C)c2c1 | inconclusive: 18.3 µM [activator, single point] | 
CCc1ccc(-c2cc3c(=O)n(CC(=O)NCCCN4CCN(CC)CC4)nc(C)n3n2)cc1 | inconclusive: 16.4 µM [activator, partial curve, poor fit] | 
Cc1ccc(CCC(=O)Nc2ccccc2C(=O)O)o1 | inconclusive: 23.1 µM [activator, partial curve, poor fit] | 

SMILES | Potency | activity change, positive = activation
C[C@H](CO)N1C[C@H](C)[C@@H](CN(C)S(C)(=O)=O)Oc2ccc(NC(=O)Cn3cnnn3)cc2C1=O |  | inactive: -2.69%
CCN1CCN(c2ccc(S(=O)(=O)N3CCCCC3)cc2NC(=O)/C=C/c2ccc(OC)c(OC)c2)CC1 | inconclusive: 29.1 µM [activator, partial curve, poor fit] | 
CCOC(=O)c1cc2ccc(OC)c(OC)c2c(=O)s1 | inconclusive: 18.4 µM [activator, single point] | 
O=C(Nc1ccc(N2CCOCC2)cc1)c1ccc2c(c1)OCO2 | inconclusive: 7.3 µM [activator, partial curve, poor fit] | 
Cc1ccc(OCc2csc(N)n2)cc1 | inconclusive: 16.4 µM [activator, partial curve, poor fit] | 
Cc1ccc(-c2cc(-c3ccccc3)no2)c(O)c1 | active: 0.366 µM | 
Cc1cnc(NC(=O)C2COc3ccccc3O2)s1 (configuration not stated) | inconclusive: 0.206 µM [activator, full curve, poor fit] | 
Cc1c(NS(=O)(=O)c2cc(C(=O)NCc3ccco3)cc(Cl)c2Cl)c(=O)n(-c2ccccc2)n1C |  | inactive: -7.58%
CCC1CCc2c(sc(NC(=O)c3cccnc3)c2C(N)=O)C1 (configuration not stated) | inconclusive: 18.3 µM [activator, single point] | 
O=C(Nc1nc2c(s1)CCCC2)c1ccc(N2C(=O)CCC2=O)cc1 | inconclusive: 7.3 µM [activator, partial curve, poor fit] | 
CCSc1nncn1/N=C/c1ccc(OC)c(OC)c1 | inconclusive: 18.4 µM [activator, single point] | 
COc1ccc(Cl)cc1S(=O)(=O)NCc1cccnc1 |  | inactive: -0.499%
Cc1c(NC(=O)CN(C)CC(=O)Nc2ccc(F)c(F)c2F)c(=O)n(-c2ccccc2)n1C |  | inactive: 0.0923%
Cn1ccc(C(=O)N/N=C/c2c[nH]c3ccccc23)n1 | inconclusive: 10.3 µM [activator, partial curve] | 
Cc1ccc(-c2cc(C(=O)N/N=C/c3ccccc3O)n[nH]2)o1 | inconclusive: 29.1 µM [activator, single point] | 
Cn1cc(/C=N\NC(=O)c2cccs2)c2ccccc21 | active: 11.2 µM | 
Cc1ccc(Nc2cc(C)nc(-c3ccccc3)n2)cc1 | inconclusive: 16.4 µM [activator, partial curve, poor fit] | 
Cc1ccc2c(c1)C(c1ccccc1)N(C(=O)c1ccccc1[N+](=O)[O-])CC(=O)N2 (configuration not stated) |  | inactive: -4.45%
CCSc1nnc(NC(=O)/C=C/c2ccco2)s1 | inconclusive: 29.1 µM [activator, single point] | 
COc1ccc(CN2CCNC(=O)C2CC(=O)NCC2CCOCC2)cc1C (configuration not stated) |  | inactive: 2.23%
CCn1c(SCC(=O)N2CCCCC2)nnc1-c1ccc(S(=O)(=O)N2CCN(C)CC2)cc1 | inconclusive: 23.1 µM [activator, single point] | 
O=c1oc(Nc2ccccc2F)nc2ccccc12 | inconclusive: 20.6 µM [activator, single point] | 
Cc1ccc(NC(=S)/C(=C(\[O-])c2ccc(C)c([N+](=O)[O-])c2)[n+]2ccccc2)cc1C | inconclusive: 20.6 µM [activator, partial curve, poor fit] | 
O=C(Cc1ccc(Br)cc1)OCC(=O)c1ccc[nH]1 |  | inactive: -1.5%

SMILES | Potency | activity change, positive = activation
O=C(c1ccco1)N1CCN(Cc2ccc(F)cc2Cl)CC1 | inconclusive: 14.6 µM [activator, partial curve, poor fit] | 
Cc1ccc(/C=C/C2=NN(C)C(=O)CC2)cc1 | inconclusive: 2.24 µM [activator, full curve] | 
O=C(CN1CCCCC1)Nc1cc(Cl)ccc1Cl | inconclusive: 18.4 µM [activator, single point] | 
NC(=O)N/N=C/c1c(O)ccc2oc3c(c12)CCCC3 | inconclusive: 4.11 µM [activator, partial curve, poor fit] | 
CCN(CC)CCNc1ncnc2c1sc1nc(N3CCCC3)c3c(c12)CC(C)(C)OC3 | inconclusive: 20.6 µM [activator, partial curve, poor fit] | 
O=C(Nc1ccc(F)cc1)/C(Cl)=C/c1ccccc1 | inconclusive: 3.26 µM [activator, full curve] | 
Cc1nc(-c2ccc(C(=O)Nc3ccccc3F)cc2)cs1 | inconclusive: 0.58 µM [activator, partial curve] | 
COc1ccc(OC)c(NC(=O)Nc2cccc3ccccc23)c1 |  | inactive: 6.06%
Cn1c(=O)n(C)c2cc(S(=O)(=O)Nc3ccccc3O)ccc21 | inconclusive: 23.1 µM [activator, partial curve, poor fit] | 
O=C(N/N=C/c1cccc(O)c1)c1cc(C2CC2)nc2ccccc12 |  | inactive: -8.49%
CCOC(=O)c1c(C)oc2c1c1c(c3ccccc32)OCN(Cc2ccccn2)C1 | inconclusive: 29.1 µM [activator, partial curve, poor fit] | 
O=C(OCc1ccccc1)/C(=C/c1cccc(Br)c1)NC(=O)c1ccco1 |  | inactive: -5.33%
CCOC(=O)c1ccccc1NC(=O)CCNC(=O)Cn1cnc2ccccc2c1=O |  | inactive: -1.59%
CCOc1ccc(C(=O)NCc2ccco2)cc1 | inconclusive: 16.4 µM [activator, partial curve, poor fit] | 
CC1CN/C(=C\C(=O)c2ccc(Cl)cc2)C(=O)N1 (configuration not stated) | inconclusive: 1.46 µM [activator, partial curve] | 
Nc1cc(N)cc(-c2nc3ccccc3[nH]2)c1 | inconclusive: 29.1 µM [activator, partial curve, poor fit] | 
Cc1cc(C(=O)OCC(=O)N2CC(C)OC(C)C2)c2ccccc2n1 (configuration not stated) |  | inactive: -1.33%
O=C(Nc1ccc(Br)cc1)Nc1ccccc1Cl | inconclusive: 16.4 µM [activator, partial curve, poor fit] | 
COc1cc2ccccc2cc1C(=O)Nc1ccc(Cl)cn1 | inconclusive: 9.2 µM [activator, partial curve] | 
O=C(COc1ccc2ccccc2c1Br)N1CCCCC1 | active: 18.3 µM | 
NC(=O)CC(NC(=O)c1ccc(Br)cc1)c1ccc(N2CCCCCCC2)c([N+](=O)[O-])c1 (configuration not stated) |  | inactive: -3.07%
N/C(=N\OC(=O)Cc1cccs1)c1ccc(Cl)cc1 | inconclusive: 14.6 µM [activator, partial curve, poor fit] | 
CCOc1ccc(NC(=O)c2cnccn2)cc1 | inconclusive: 6.51 µM [activator, partial curve] | 
O=C(Nc1cccc(O)c1)c1ccc(C(=O)c2ccccc2)o1 | inconclusive: 5.17 µM [activator, single point] | 

From PubChem BioAssay AID504466 (National Center for Advancing Translational Sciences (NCATS), 2011)
